Consider twelve variants from the supplement of paper PMC12217912.

B1: TEV protease; numbered along this chain (parent)
chain: MGESLFKGPRDYNPISSSICHLTNESDGHTTSLYGIGFGPFIITNKHLFRRNNGTLVVQSLHGVFKVKDTTTLQQHLVDGRDMIIIRMPKDFPPFPQKLKFREPQREERICLVTTNFQTKSMSSMVSDTSCTFPSGDGIFWKHWIQTKDGQCGSPLVSTRDGFIVGIHSASNFTNTNNYFTSVPKNFMELLTNQEAQQWVSGWRLNADSVLWGGHKVFMVKPEEPFQPVKEATQL

The list shows a part of the results. The full chains were built here from the parent and the listed change. Inactive controls read about 0.05.
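Also: Bxb1 expression induced with 0.2% (w/v) L-rhamnose at OD600 near 0.5, cultures sampled hourly, flipped fraction per protease–substrate barcode pair counted by paired-end Illumina sequencing.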

This assay covers variants of B1. Nature of the assay: raw area under fraction-flipped curve 0-4 h after induction (AUC4h, not background-subtracted), DNA-recorder readout of cleavage of the substrate (dimensionless); higher = more cleavage of the substrate by the protease variant. The settings on record: temperature: 34 °C; time window: 0-4 h after rhamnose induction. The method, then: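 In vivo DNA recorder in E. coli TOP10(DE3) ΔrhaA at 34 °C. Each TEVp single-site mutant (parent TEVp 0) is paired with a single-site variant of the 7-mer TEVs (canonical ENLYFQ|S). The substrate sits between flexible linkers in a Bxb1-sfGFP-TEVs-SsrA fusion, so cleavage stabilises Bxb1 and speeds flipping of a recombination array, read by NGS. The value is the raw area under the fraction-flipped curve over 0-4 h after rhamnose induction (AUC4h), with ≥20 reads per time point. It is not background-subtracted; inactive controls average about 0.047.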
As to MGESLFKGPRDYNPISSSICHLTNESDGHTTSLYGIGFGPFIITNKHLFRRNNGTLVVQSLHGVFKVKDTTTLQQHLVDGRDMIIIRMPKDFPPFPQKLKFREPQREERICLVTTNFQTKSMSSMVSDTSCTFPSGDGIFWKHWIQTKDGQCGSPLVSTRDGFIVGIHSWSNFTNTNNYFTSVPKNFMELLTNQEAQQWVSGWRLNADSVLWGGHKVFMVKPEEPFQPVKEATQL [A170W], the “area with substrate GNLYFQS” value is 0.0686, the “area with substrate HNLYFQS” value was 0.0583, the “area with substrate INLYFQS” value came out at 0.0522 and the “area with substrate KNLYFQS” value came out at 0.0592. Further, the “area with substrate PNLYFQS” value is 0.0513, the “area with substrate TNLYFQS” value was 0.0728, the “area with substrate WNLYFQS” value is 0.0503 and the “area with substrate YNLYFQS” value stood at 0.0524.
With MGESLFKGPRDYNPISSSICHLTNESDGHTTSLYGIGFGPFIITNKHLFRRNNGTLVVQSLHGVFKVKDTTTLQQHLVDGRDMIIIRMPKDFPPFPQKLKFREPQREERICLVTTNFQTKSMSSMVSDTSCTFPSGDGIFWKHWIQTKDGQCGSPLVSTRDGFIVGIHSISNFTNTNNYFTSVPKNFMELLTNQEAQQWVSGWRLNADSVLWGGHKVFMVKPEEPFQPVKEATQL [A170I], the “area with substrate GNLYFQS” value was determined as 0.0645 and the “area with substrate INLYFQS” value came to 0.0466.
Take MGESLFKGPRDYNPISSSICHLTNESDGHTTSLYGIGFGPFIITNKHLFRRNNGTLVVQSLHGVFKVKDTTTLQQHLVDGRDMIIIRLPKDFPPFPQKLKFREPQREERICLVTTNFQTKSMSSMVSDTSCTFPSGDGIFWKHWIQTKDGQCGSPLVSTRDGFIVGIHSASNFTNTNNYFTSVPKNFMELLTNQEAQQWVSGWRLNADSVLWGGHKVFMVKPEEPFQPVKEATQL [M88L]: the “area with substrate GNLYFQS” value stood at 0.0662, the “area with substrate HNLYFQS” value amounted to 0.0707, the “area with substrate INLYFQS” value came to 0.0631 and the “area with substrate MNLYFQS” value stood at 0.0749. Moreover, the “area with substrate TNLYFQS” value was determined as 0.0754, the “area with substrate WNLYFQS” value came to 0.0606 and the “area with substrate YNLYFQS” value was determined as 0.0698.
On to MGESLFKGPRDYNPISSSICHLTNESDGHTTSLYGIGFGPFIITNKHLFRRNNGTLVVQSLHGVFKVKDTTTLQQHLVDGRDMIIIRMPKDFPPFPQKLKFREPQREERICLVTTNFQTKSMSSMVSDTSCTFPSGDGIFWKHWIQTKDGQCGSPLVSTRDGFIVGIHSASNFTNTNNYFTSVPKNFRELLTNQEAQQWVSGWRLNADSVLWGGHKVFMVKPEEPFQPVKEATQL [M188R], for which the “area with substrate GNLYFQS” value came to 0.0853, the “area with substrate HNLYFQS” value came out at 0.064, the “area with substrate NNLYFQS” value was found to be 0.0722 and the “area with substrate PNLYFQS” value stood at 0.0522. The “area with substrate RNLYFQS” value came out at 0.0619, the “area with substrate TNLYFQS” value worked out at 0.0814 and the “area with substrate YNLYFQS” value stood at 0.0638.
Consider MGESLFKGPRDYNPISSSICHLTNESDGHTTSLYGIGFGPFIITNKHLFRRNNGTLVVQSLHGVFKVKDTTTLQQHLVDGRDMIIIRMPKDFPPFPQKLKFREPQREERICLVTTNFQTKSMSSMVSDTSCTFPSGTGIFWKHWIQTKDGQCGSPLVSTRDGFIVGIHSASNFTNTNNYFTSVPKNFMELLTNQEAQQWVSGWRLNADSVLWGGHKVFMVKPEEPFQPVKEATQL [D137T], for which the “area with substrate GNLYFQS” value worked out at 0.0612, the “area with substrate HNLYFQS” value was 0.0673, the “area with substrate LNLYFQS” value is 0.0604 and the “area with substrate MNLYFQS” value came out at 0.0847. The “area with substrate PNLYFQS” value worked out at 0.0733 and the “area with substrate SNLYFQS” value was found to be 0.0554.
As for MGESLFKGPRDYNPISSSICHLTNESDGHTTSLYGIGFGPFIITNKHLFRRNNGTLVVQSLHGVFKVKDTTTLQQHLVDGRDMIIIRMPKDFPPFPQKLKFREPQREERICLVTTNFQTKSMSSMVSDHSCTFPSGDGIFWKHWIQTKDGQCGSPLVSTRDGFIVGIHSASNFTNTNNYFTSVPKNFMELLTNQEAQQWVSGWRLNADSVLWGGHKVFMVKPEEPFQPVKEATQL [T129H], the “area with substrate GNLYFQS” value is 0.121, the “area with substrate HNLYFQS” value was found to be 0.0769, the “area with substrate MNLYFQS” value is 0.0669 and the “area with substrate NNLYFQS” value stood at 0.066. The “area with substrate TNLYFQS” value is 0.0783.
Take MGESLFKGPRDYNPISSSICHLTNESDGHTTSLYGIGFGPFIITNKHLFRRNNGTLVVQSLHGVFKVKDTTTLQQHLVDGRDMIIIRMPKDFPPFPQKLKFREPQREERICLVTTNFQTKSMSSMVSDTSCTFPSGDGIFWKHWIQTKDGQCGSPLVSTRDGFIVGIHSASNFTSTNNYFTSVPKNFMELLTNQEAQQWVSGWRLNADSVLWGGHKVFMVKPEEPFQPVKEATQL [N175S]: the “area with substrate GNLYFQS” value stood at 0.0621, the “area with substrate NNLYFQS” value was 0.0585, the “area with substrate VNLYFQS” value worked out at 0.0623 and the “area with substrate YNLYFQS” value is 0.0604.
As for MGESLFKGPRDYNPISSSICHLTNESDGHTTSLYGIGFGPFIITNKHLFRRNNGTLVVQSLHGVFKVKDTTTLQQHLVDGRDMIIIRMPKDFPPFPQKLKFREPQREERICLVTTNFQTKSMSSMVSDTSCTFPSGDGIFWKHWIQTKDGQCGSPLVSTRDGFIVGIHSASPFTNTNNYFTSVPKNFMELLTNQEAQQWVSGWRLNADSVLWGGHKVFMVKPEEPFQPVKEATQL [N172P], the “area with substrate GNLYFQS” value is 0.0588, the “area with substrate HNLYFQS” value is 0.0561, the “area with substrate KNLYFQS” value stood at 0.0474 and the “area with substrate LNLYFQS” value is 0.0242. The “area with substrate MNLYFQS” value was determined as 0.0339, the “area with substrate PNLYFQS” value turned out to be 0.0934, the “area with substrate QNLYFQS” value worked out at 0.0555 and the “area with substrate SNLYFQS” value was 0.0666. Further, the “area with substrate TNLYFQS” value was determined as 0.0605 and the “area with substrate YNLYFQS” value was 0.0413.
For MGESLFKGPRDYNPISSSICHLTNESDGHTTSLYGIGFGPFIITNKHLFRRNNGTLVVQSLHGVFKVKDTTTLQQHLVDGRDMIIIRMPKDFPPFPNKLKFREPQREERICLVTTNFQTKSMSSMVSDTSCTFPSGDGIFWKHWIQTKDGQCGSPLVSTRDGFIVGIHSASNFTNTNNYFTSVPKNFMELLTNQEAQQWVSGWRLNADSVLWGGHKVFMVKPEEPFQPVKEATQL [Q97N], the “area with substrate GNLYFQS” value was found to be 0.0717, the “area with substrate PNLYFQS” value was 0.0661 and the “area with substrate SNLYFQS” value turned out to be 0.0605.
As for MGESLFKGPRDYNPISSSICHLTNESDGHTTSLYGIGFGPFIITNKHLFRRNNGTLVVQSLHGVFKVKDTTTLQQHLVDGRDMIIIRMPKDFPPFPQKLKFREPQREERICLVTTNFQTKSMSSMVSDTSCTFPSGDGIFWKHWIQTLDGQCGSPLVSTRDGFIVGIHSASNFTNTNNYFTSVPKNFMELLTNQEAQQWVSGWRLNADSVLWGGHKVFMVKPEEPFQPVKEATQL [K148L], the “area with substrate GNLYFQS” value turned out to be 0.0742, the “area with substrate HNLYFQS” value was 0.0776, the “area with substrate QNLYFQS” value came to 0.0575 and the “area with substrate SNLYFQS” value is 0.0705. Further, the “area with substrate TNLYFQS” value was determined as 0.0625, the “area with substrate WNLYFQS” value is 0.0606 and the “area with substrate YNLYFQS” value amounted to 0.0635.
Consider MGESLFKGPRDYNPISSSICHLTNESDGHTTSLYGIGFGPFIITNKHLFRRNNGTLVVQSLHGVFKVKDTTTLQQHLVDGRDMIIIRMPKDFPPFPQKLKFREPQREERICLVTTNFQTKSMSSMVSDTSCTFPSGDGIFWKHWIQTKDGQCGSPLVSTRDGFIVGIHSASNFTNTNNYFTSVPKNFMELLTNQEAQQWVNGWRLNADSVLWGGHKVFMVKPEEPFQPVKEATQL [S201N], for which the “area with substrate GNLYFQS” value turned out to be 0.0699, the “area with substrate HNLYFQS” value amounted to 0.0587, the “area with substrate INLYFQS” value amounted to 0.0521 and the “area with substrate KNLYFQS” value was found to be 0.0593. The “area with substrate LNLYFQS” value is 0.0608, the “area with substrate PNLYFQS” value is 0.0721, the “area with substrate TNLYFQS” value was 0.0676 and the “area with substrate VNLYFQS” value turned out to be 0.0625. In addition, the “area with substrate WNLYFQS” value was found to be 0.0694.
For MGESLFKGPRDYNPISSSICHLTNESDGHTTSLYGIGFGPFIITNKHLFRRNNGTLVVQSLHGVFKVKDTTTLQQHLVDGRDMIIIRMPKDFPPFPQKLKFREPQREERICLVTTNFQTKSMSSMVSDTSCTFPSGDGIFWKHWIQTKDGQCGSPLVSTRDGFIVGIHSASNFTNTNNYFTSVPKNFMELLTNQEAQQWVSWWRLNADSVLWGGHKVFMVKPEEPFQPVKEATQL [G202W], the “area with substrate GNLYFQS” value was found to be 0.06, the “area with substrate KNLYFQS” value came to 0.0622, the “area with substrate MNLYFQS” value worked out at 0.0304 and the “area with substrate QNLYFQS” value worked out at 0.0557. The “area with substrate SNLYFQS” value was found to be 0.0552, the “area with substrate WNLYFQS” value came to 0.0583 and the “area with substrate YNLYFQS” value is 0.0516.
